In all, about 350,000 compounds went through this assay and about 31,000 (8.9%) were called active. Inconclusive results, whose numbers are uncertain, are shown with a selection of clear calls. The call rests on the fitted dose curve; in most records, active means well fitted inhibition curve with a large enough effect; inconclusive means small, poorly fitted or top-dose-only effect; inactive means no such curve, though single readings can be large or run the other way. Potencies beside an inconclusive call are fits to weak or partial responses and may not hold up.
target: Histone-lysine N-methyltransferase EHMT2 (Homo sapiens) (UniProt Q96KQ7); assay: qHTS Assay for Inhibitors of Histone Lysine Methyltransferase G9a; settings: G9a H3K9 monomethylation, AlphaScreen, 2 h; activity, negative = inhibition: at 59 µM (top of the series) unless noted; further: nearly all actives have a fitted effect of over 75% in size
How it was run: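 Enzyme 20 nM + cpd, 15 min RT; add b-H3K9 pep 500 nM / SAM 20 uM; 2 h RT; anti-H3K9me1 Ab 0.5 ug/mL + SA donor / anti-rabbit acceptor beads 20 ug/mL each, 10 min; AlphaScreen read.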
On the % scale 0 is the no-effect control and ±100 the full control effect; potency means the concentration at half of the fitted maximal effect; tags describe the fitted curve by direction and shape.

UniProt Q96KQ7, sequence (Q96KQ7 whole entry, looked up): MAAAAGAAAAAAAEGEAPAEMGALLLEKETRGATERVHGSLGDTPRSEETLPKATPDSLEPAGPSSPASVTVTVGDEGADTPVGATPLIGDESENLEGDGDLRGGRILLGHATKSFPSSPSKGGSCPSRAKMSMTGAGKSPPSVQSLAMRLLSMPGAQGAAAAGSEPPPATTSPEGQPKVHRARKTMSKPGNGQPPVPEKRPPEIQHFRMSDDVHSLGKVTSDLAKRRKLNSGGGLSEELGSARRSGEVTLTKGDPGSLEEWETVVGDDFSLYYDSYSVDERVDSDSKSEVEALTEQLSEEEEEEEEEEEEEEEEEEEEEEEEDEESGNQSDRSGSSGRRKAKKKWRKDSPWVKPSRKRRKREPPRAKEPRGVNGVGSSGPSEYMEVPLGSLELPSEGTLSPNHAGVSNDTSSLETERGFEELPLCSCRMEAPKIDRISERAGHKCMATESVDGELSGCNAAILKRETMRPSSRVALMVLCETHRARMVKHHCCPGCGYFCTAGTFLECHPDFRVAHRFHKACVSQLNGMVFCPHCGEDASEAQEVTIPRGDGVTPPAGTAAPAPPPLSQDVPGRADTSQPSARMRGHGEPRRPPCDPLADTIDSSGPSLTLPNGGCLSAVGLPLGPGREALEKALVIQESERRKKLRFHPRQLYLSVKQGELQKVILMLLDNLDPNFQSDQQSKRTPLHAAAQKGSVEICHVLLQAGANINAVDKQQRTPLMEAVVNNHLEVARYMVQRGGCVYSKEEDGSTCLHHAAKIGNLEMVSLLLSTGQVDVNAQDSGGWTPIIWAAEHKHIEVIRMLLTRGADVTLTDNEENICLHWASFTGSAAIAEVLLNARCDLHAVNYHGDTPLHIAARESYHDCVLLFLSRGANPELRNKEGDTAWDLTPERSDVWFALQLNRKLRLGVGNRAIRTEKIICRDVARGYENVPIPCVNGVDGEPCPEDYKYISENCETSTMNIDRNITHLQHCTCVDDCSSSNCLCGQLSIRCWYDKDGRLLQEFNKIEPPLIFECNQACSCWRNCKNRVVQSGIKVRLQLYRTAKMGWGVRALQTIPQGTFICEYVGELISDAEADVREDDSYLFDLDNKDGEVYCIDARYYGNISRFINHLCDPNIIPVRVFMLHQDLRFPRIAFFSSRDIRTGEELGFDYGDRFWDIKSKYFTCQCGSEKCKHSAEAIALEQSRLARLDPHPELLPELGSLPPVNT

| Compound | activity, negative = inhibition | Potency |
| --- | --- | --- |
| Cc1nc2cc(NC(=O)CSc3nc4c(C)cccc4cc3C#N)ccc2s1 | inconclusive: -77.3% [inhibitor] | – |
| COC(=O)c1nn(-c2ccc(C)cc2)ccc1=O | inactive: 4.04% [at 102 µM] | – |
| CCOC(=O)c1ccc(NC(=O)CSc2nc(-c3ccc(OC)cc3)cc(C(F)(F)F)c2C#N)cc1 | inactive: 12.7% | – |
| O=C(Cc1ccc(Cl)c(Cl)c1)NNC(=S)NCC1CCCO1 (centres undefined) | inactive: 21.9% [at 0.501 µM] | – |
| N#Cc1nc(COc2ccccc2Cl)oc1NCCc1ccccc1 | – | inconclusive: 25.1 µM [inhibitor, single point] |
| Cc1cccc2sc(N(CCCN(C)C)C(=O)c3nc4ccccc4s3)nc12 | – | active: 10 µM |
| CSCC[C@H](NC(=O)OC(C)(C)C)C(=O)N/N=C/c1cccc2cccnc12 | – | inconclusive: 70.8 µM [inhibitor, single point] |
| CC1CCCN(S(=O)(=O)c2ccc(C(=O)Nc3nnc(-c4ccccn4)o3)cc2)C1 (centres undefined) | inactive: -43.9% [at 102 µM] | – |
| CCc1nnc(SC(CC)C(=O)Nc2ccc(OC)c(Cl)c2)c2cc3occc3n12 (centres undefined) | – | inconclusive: 8.91 µM [inhibitor, partial curve] |
| COc1ccc(C(=O)Nc2ccc(NC(=O)C3CC3)cn2)cc1 | – | inconclusive: 89.1 µM [inhibitor, single point] |
| CCOc1ccccc1NC(=O)CSc1nnnn1-c1ccc(C(=O)OC)cc1 | – | inconclusive: 89.1 µM [inhibitor, single point] |
| CCn1c(C)c(C(C)=O)c(SC)nc1=S | – | inconclusive: 39.8 µM [inhibitor, partial curve, poor fit] |
| COC(CNC(=O)CCc1c(C)nc2c(-c3ccc(F)cc3)c(C)nn2c1C)OC | inactive: 1.46% | – |
| CCOC(=O)c1c(NC(=O)CCC(=O)NCc2ccco2)sc2c1CCCC2 | inactive: 6.67% | – |
| CCOC(=O)C1CCN(S(=O)(=O)c2nc3nc(C)cc(C)n3n2)CC1 | inactive: 2.13% [at 12.7 µM] | – |
| CCCCn1c(SCC(=O)c2ccc3c(c2)NC(=O)CO3)nc2cc(S(N)(=O)=O)ccc21 | – | inconclusive: 15.8 µM [inhibitor, full curve, poor fit] |
| CC1(C)CC(=O)C(C(=O)CCCCC(=O)C2C(=O)CC(C)(C)CC2=O)C(=O)C1 | – | inconclusive: 3.55 µM [inhibitor, full curve] |
| CNC(C)C#Cc1ccc2oc3cccc(OC)c3c(=O)c2c1 (centres undefined) | – | active: 44.7 µM |
| C/C(=N\NC(=O)C1=NNC(=O)C1C)c1cccs1 (centres undefined) | – | active: 44.7 µM |
| CCn1cc(C(=O)Nc2ccc(OC)c(S(=O)(=O)N3CCCCC3)c2)c(=O)c2ccc(C)nc21 | – | inconclusive: 39.8 µM [inhibitor, single point] |
| CCC(=C(c1ccc(OC)cc1)c1ccc(OC)cc1)c1cn(CC(O)CN2CCN(C)CC2)c2ccccc12 (centres undefined) | – | active: 39.8 µM |
| O=S1(=O)c2cccc3cccc(c23)N1Cc1ccc(-c2nnco2)cc1 | inactive: 9.71% [at 12.7 µM] | – |
| CCNCc1cc(Br)c(OCC(=O)Nc2ccccc2)c(OC)c1 | – | inconclusive: 39.8 µM [inhibitor, single point] |

| Compound | activity, negative = inhibition | Potency |
| --- | --- | --- |
| Cc1cc(/C=C\c2nc(O)c([N+](=O)[O-])c(=O)[nH]2)c(C)n1-c1ccccc1 | – | active: 50.1 µM |
| CC(=O)Nc1nc(-c2ccc3c(c2)CCN3C(=O)C2CC2)c(C)s1 | – | inconclusive: 39.8 µM [inhibitor, single point] |
| CSc1ccccc1NC(=O)Cn1nc([N+](=O)[O-])cc1C | – | active: 28.2 µM |
| CC(=O)/C(N=Nc1ccc2c(c1)OCCO2)=C(\C)O | inactive: -44.7% [at 102 µM] | – |
| O=C1/C(=C/c2ccsc2)CC/C1=C\c1cccs1 | – | inconclusive: 42.3 µM [inhibitor, single point] |
| O=C(CN(Cc1ccccc1)C(=O)CNS(=O)(=O)c1ccccc1)NCc1ccco1 | inactive: -11.4% [at 102 µM] | – |
| C=CCOc1ccc(C(=O)N(Cc2ccc(N(C)C)cc2)C2CCS(=O)(=O)C2)cc1 (centres undefined) | – | active: 50.1 µM |
| Cc1ccc(NC(=O)c2ccccc2-c2ccccc2C(=O)O)cc1C | – | inconclusive: 79.4 µM [inhibitor, single point] |
| CC(C)Cc1ccccc1S(N)(=O)=O | – | inconclusive: 89.1 µM [inhibitor, single point] |
| COc1ccc(Cn2nnnc2C(c2ccc(N(C)C)cc2)N2CCC(C(N)=O)CC2)cc1 (centres undefined) | – | active: 12.6 µM |
| Cc1ccc(C2=NN(C(=O)CSc3nccn3C)C(c3ccco3)C2)cc1 (centres undefined) | – | inconclusive: 56.2 µM [inhibitor, partial curve, poor fit] |
| O=S(=O)(Nc1nc2ccccc2nc1Cl)c1ccc(Cl)cc1 | – | inconclusive: 28.2 µM [inhibitor, single point] |
| CCOc1ccc(CN2CCN(Cc3cnc(-c4ccccc4)s3)CC2CCO)cc1 (centres undefined) | – | inconclusive: 79.4 µM [inhibitor, single point] |
| Cc1ccc(NC(=O)Nc2cccc(C)n2)cc1 | – | inconclusive: 25.1 µM [inhibitor, partial curve, poor fit] |
| NCCOc1ccc(C23CC4CC(CC(C4)C2)C3)cc1 | – | inconclusive: 50.1 µM [inhibitor, partial curve, poor fit] |
| CCOC(=O)CSC(=S)NC(=O)c1ccc(OC)cc1 | – | inconclusive: 20 µM [inhibitor, single point] |
| CN1CCN(C(=S)c2ccc(-c3cc(Cl)ccc3Cl)o2)CC1 | – | active: 31.6 µM |
| COc1cccc(-n2ccn(CC(=O)NCc3ccc(C)cc3)c(=O)c2=O)c1 | inactive: 0.48% | – |
| CCOC(=O)/C(C#N)=C/c1c(N2CCN(CC)CC2)nc2c(C)cccn2c1=O | – | inconclusive: 79.4 µM [inhibitor, single point] |
| COc1cc(C2c3c(oc4ccccc4c3=O)C(=O)N2c2ccc(C)cn2)ccc1O (centres undefined) | inactive: -47.4% [at 102 µM] | – |
| COc1ccccc1Nc1nc(-c2ccc(F)cc2)c2c(n1)-c1ccccc1OC2 | – | inconclusive: 25.1 µM [inhibitor, partial curve, poor fit] |
| Cc1cc(O)ccc1NS(=O)(=O)c1ccc2c3c(cccc13)C(=O)N2 | inactive: -22.4% [at 102 µM] | – |
| CC(C)(C)c1ccc(C(=O)NNC(=O)C2CCCCC2)cc1 | – | inconclusive: 7.94 µM [inhibitor, partial curve, poor fit] |

| Compound | activity, negative = inhibition | Potency |
| --- | --- | --- |
| C=CCn1c(=O)/c(=C/c2ccc(F)cc2)s/c1=C(\C#N)c1nnc2n1CCCCC2 | – | inconclusive: 28.2 µM [inhibitor, partial curve, poor fit] |
| CCOC(=O)C1=C(O)/C(=C/N(C)C)N=C1C | – | inconclusive: 89.1 µM [inhibitor, single point] |
| Cc1cc(N2CCN(C3CCCCC3)CC2)nc2cccc(O)c12 | – | inconclusive: 39.8 µM [inhibitor, single point] |
| COc1ccc2[nH]c(C(=O)Nc3ccccc3Cl)cc2c1 | – | inconclusive: 79.4 µM [inhibitor, partial curve, poor fit] |
| O=S(=O)(NCCC1=CCCCC1)c1cccc(S(=O)(=O)N2CCOCC2)c1 | – | inconclusive: 56.2 µM [inhibitor, single point] |
| Cc1ccc(NC(=O)c2cc(N3C(=O)C=CC3=O)ccc2N2CCOCC2)cc1 | – | active: 1 µM |
| Cc1cc(NC(=O)COC(=O)c2cc(S(=O)(=O)N3CCOCC3)ccc2N2CCCCC2)no1 | inactive: -23.6% | – |
| Cc1ccc(Cl)cc1N1CCN(C(=O)C2CCN(S(=O)(=O)Cc3ccccc3)CC2)CC1 | – | inconclusive: 35.5 µM [inhibitor, partial curve, poor fit] |
| CC(=O)OCCCNc1cc(SCc2ccco2)c2nonc2c1[N+](=O)[O-] | – | inconclusive: 15.8 µM [inhibitor, single point] |
| Cc1ccc(S(=O)(=O)N2CCN(C(=O)C3COc4ccccc4O3)CC2)cc1C (centres undefined) | – | inconclusive: 6.31 µM [inhibitor, single point] |
| CCCNC(=O)Cn1c(=O)/c(=C\c2ccc(-c3ccc([N+](=O)[O-])cc3)o2)s/c1=C\C(=O)C(C)(C)C | – | inconclusive: 31.6 µM [inhibitor, single point] |
| Cc1nnc2ccc(-c3cccc(NS(=O)(=O)c4cc(F)ccc4F)c3)nn12 | – | inconclusive: 89.1 µM [inhibitor, single point] |
| Cc1ccc(CSC2=Nc3ccccc3C3=NC(CC(=O)NCc4cccs4)C(=O)N23)c(C)c1 (centres undefined) | inactive: 5.29% | – |
| COCCn1c(C)cc(C(=O)COC(=O)c2c(C)nn(Cc3ccccc3)c2C)c1C | – | active: 79.4 µM |
| CCNC(=S)N(CCc1c(C)[nH]c2ccc(Cl)cc12)Cc1ccco1 | – | inconclusive: 50.1 µM [inhibitor, partial curve, poor fit] |
| CCOC(=O)c1c(C)c(C(=O)N2CCN(c3ccc(F)cc3)CC2)c(C)n1C | – | inconclusive: 2.24 µM [inhibitor, full curve, poor fit] |
| COc1cccc(C(=O)NC(=S)Nc2cccnc2)c1 | – | inconclusive: 28.2 µM [inhibitor, single point] |
| Cc1cc(C)cc(OCC(=O)N(Cc2ccc(N(C)C)cc2)C2CCS(=O)(=O)C2)c1 (centres undefined) | inactive: -113% | – |
| COc1cccc(NC(=O)CN2C(=O)NC3(CCCc4ccccc43)C2=O)c1 (centres undefined) | – | active: 10 µM |
| COc1ccc(NC(=O)c2c(NCc3cccs3)sc3c2CCCC3)c(OC)c1 | – | inconclusive: 14.1 µM [inhibitor, partial curve, poor fit] |
| CCCSc1nc2cc(C)c(C)cc2n1CC(C)O (centres undefined) | – | active: 11.2 µM |
| CCC(CC)C(=O)NN(C(=O)c1ccncc1)C1CC(=O)N(c2ccccc2)C1=O (centres undefined) | inactive: -1.92% [at 102 µM] | – |
| O=C(NN1C(=O)C2C3c4ccccc4C(c4ccccc43)C2C1=O)c1ccc(Cl)cc1 (centres undefined) | – | inconclusive: 3.55 µM [inhibitor, partial curve, poor fit] |
